Experimental findings from the supplement of paper PMC7826260 are described below.

The other results are listed elsewhere or left out. The data describe in vitro nicking of single-stranded DNA by Rep domains for 1 h at 37 °C with 3 µM enzyme; only the middle of the 90-letter strands is printed. Numbers give uncut DNA relative to the enzyme-free pool, as log2; more negative means more cut, near 0 not cut, and no call is made. Reads are scaled to the total; where an enzyme cuts many sequences, the uncut ones exceed 0.

The experiment concerns T1, Rep nickase domain of tomato golden mosaic virus.
T1 sequence (residues 1-124 of Rep, tag left off): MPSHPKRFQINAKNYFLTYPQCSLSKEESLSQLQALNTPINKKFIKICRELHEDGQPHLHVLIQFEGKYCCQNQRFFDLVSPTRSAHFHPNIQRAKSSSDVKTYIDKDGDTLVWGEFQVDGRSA
Briefly: uncleaved DNA left, log2 of reads against the no-enzyme library (log2 ratio); higher = less cleavage (more negative = more Rep cleavage of the k-mer); sequences stand for … in CTCGTCCG…ACCGGAGA
The method, then:
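A pool of 90-nt single-stranded DNAs with seven random bases just before the constant AC of the nick site (name = the seven bases) was cut by 3 µM recombinant His6-SUMO-tagged Rep nickase domain (300 nM DNA, 50 mM HEPES pH 8.0, 50 mM NaCl, 1 mM MnCl2, 1 h, 37 °C, three replicates). Uncut DNA was amplified and sequenced.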
On to GTGTTTA, for which the “uncleaved DNA left (log2)” value is 0.037.
The value for TCTTCTC was -0.171; that for AATGTGT was -0.0616.
Under CACATGG stands -0.0927; under TGCCTGG, 0.0125.
Under GGCAACT stands 0.0829.
In the case of AAAGCGG, the “uncleaved DNA left (log2)” value turned out to be 0.223.
CTCGGTT: the “uncleaved DNA left (log2)” value is -0.0323.
Under CTATGTT stands -3.07.
Under ATATTAT stands 0.0632; under TTATTTC, -0.149.
Under CTTCGCA stands -0.0165; under ATTAGTC, -0.0452; under TGATGGT, 0.103.
Take AACTCGC: the “uncleaved DNA left (log2)” value was -0.0828.
Under TTGGTAG stands 0.00169; under ACTATAG, -0.0513; under TTGAGCC, -0.122.
As for GCGTTTT, the “uncleaved DNA left (log2)” value is -0.159.
Turning to ATCTACA, the “uncleaved DNA left (log2)” value is -0.0805.
On to CCGGTTA, for which the “uncleaved DNA left (log2)” value stood at 0.00683.
For the sequence TGGCTAA, the “uncleaved DNA left (log2)” value is -0.016.
Regarding GCACCCC, the “uncleaved DNA left (log2)” value was -0.147.
Turning to ATATGTC, the “uncleaved DNA left (log2)” value was -0.192.
Under AGGTCTG stands 0.13.
Take TCTGATT: the “uncleaved DNA left (log2)” value is -0.219.
The value for TGACGGG was -0.0754; that for CTGGCAT was -0.0749.
Under CTTAGTT stands 0.00483; under GCGACTC, 0.00134; under GGTCTAA, 0.0635.
Under TCCTACA stands -0.00843; under ACGATCA, 0.139.
On to ATGTTAA, for which the “uncleaved DNA left (log2)” value is 0.186.
For the sequence GACTTGC, the “uncleaved DNA left (log2)” value is -0.232.
Consider ACGCGAA, for which the “uncleaved DNA left (log2)” value is 0.0843.
For the sequence GGAGAAG, the “uncleaved DNA left (log2)” value was found to be 0.0108.
Consider AAGTAAT, for which the “uncleaved DNA left (log2)” value came out at 0.105.
The value for GTGTCAT was -0.0028; that for CCGGCCG was -0.0434.
